Results: the supplement of paper PMC3334620
The full ranking holds about 33,000 sequences; the median of “E-score (-0.5 to 0.5)” is about -0.056, and the highest 2% start at about 0.38. This is one part of the list.

Molecular target: Stb4 (UniProt P50104)
Test: PBM E-score (8-mer binding enrichment) (E-score (-0.5 to 0.5)); higher = stronger / more preferred TF binding; most listed sequences are background and not binding sites
Conditions: protein concentration: 200 nM; construct: GST-DNA-binding domain
Method in brief: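 Yeast transcription factors carrying a GST tag, as full-length proteins or DNA-binding domains, were produced by PURExpress in vitro transcription/translation. About 100-200 nM protein was applied to universal all-10-mer Agilent arrays, double-stranded by primer extension on fresh or once-stripped slides. Bound protein was detected with fluorescent anti-GST, and scans were normalised with masliner. The Universal PBM Analysis Suite gave each ungapped eight-base word, pooled with its reverse complement, an E-score, a modified Wilcoxon-Mann-Whitney statistic.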

| Sequence | PBM E-score |
| --- | --- |
| CCTACGGC | 0.0539 |
| ATGCGATC | 0.0425 |
| GATCATAA | 0.139 |
| AAACATAC | -0.0963 |
| AGTCCTAC | 0.0892 |
| CATTAATC | 0.0334 |
| GGAGGTCA | -0.0321 |
| AGGACCAT | -0.172 |
| GCGAACCA | -0.0506 |
| CCACGCAG | -0.12 |
| ATGAAAGG | -0.0295 |
| AAAGATGC | -0.143 |
| ATACCGAT | 0.285 |
| TAAGAAGA | 0.0882 |
| AATTATAA | 0.0209 |
| TACCTTGA | -0.133 |
| CGACTCCC | 0.0182 |
| ACCATACT | -0.0349 |
| AGTATGGG | -0.156 |
| AAATAGGC | 0.0259 |
| ATGTCAAG | -0.117 |
| CTAATAGC | -0.205 |
| CCCAAATA | -0.201 |
| GAAGACCC | -0.0306 |
| TAAATGGA | -0.104 |

| Sequence | PBM E-score |
| --- | --- |
| AAGTGCGC | 0.0487 |
| GTATAAAC | 0.0179 |
| GAGGCGCA | 0.0247 |
| CATAAGAA | -0.00014 |
| GGAGCCTA | 0.142 |
| ATACATAG | -0.198 |
| CATGACAG | -0.199 |
| ATAAAACC | 0.0449 |
| CTACGCGA | -0.0663 |
| AACTTCAA | -0.0236 |
| ATAAGAGA | 0.132 |
| GTGAAATA | -0.0312 |
| GGACACCC | 0.0635 |
| AAATGAGT | 0.104 |
| ACGAAAGT | 0.0657 |
| GCAAGCGC | -0.0232 |
| AACCAATC | 0.0662 |
| AAGCGAGC | 0.0586 |
| TGGACCCA | -0.154 |
| AGATACAT | -0.155 |
| TCACGGGA | 0.189 |
| TGCGCCCA | -0.208 |
| TGACAAAA | -0.143 |
| ACCCCTCA | -0.119 |
| GGAAAGTA | 0.172 |

| Sequence | PBM E-score |
| --- | --- |
| CCCGTCAG | 0.124 |
| AACTGTGA | 0.0538 |
| CAGCTTAA | -0.0768 |
| GAACCTGA | -0.0761 |
| ACACGACT | -0.114 |
| GGACAACA | -0.216 |
| ACCTTCGA | -0.171 |
| CATCGCAA | -0.218 |
| GTGCTGTA | -0.141 |
| GAGACCGC | -0.0808 |
| CGCTTGTC | 0.0319 |
| CATGAATC | -0.184 |
| CCAGCATC | -0.0776 |
| AATCGTAA | -0.17 |
| CTACCCCA | -0.148 |
| AGCAGCGG | 0.162 |
| ACCGCTCT | -0.0173 |
| CTGATCTA | -0.0129 |
| ATAAAGAA | -0.103 |
| ACTCCGAA | 0.385 |
| AAAAGGTA | -0.0677 |
| CATGTAAA | -0.232 |
| ACTATTAG | 0.0221 |
| GGAAGACA | 0.0955 |
| AATACCAT | -0.115 |

| Sequence | PBM E-score |
| --- | --- |
| TAGTCATA | -0.161 |
| TACCCGGA | 0.415 |
| CCGAGTCA | 0.381 |
| GATAAAAC | 0.214 |
| CCAATGGC | -0.0284 |
| AGTCAGCC | -0.161 |
| AGGAGTGG | -0.161 |
| CACTAGGC | -0.135 |
| CACCAAAA | -0.274 |
| TAAGGGCA | -0.00253 |
| CAATCATA | -0.00184 |
| ATCGGTAG | 0.277 |
| ACCAGGGC | -0.221 |
| ATTCAAGC | -0.0456 |
| AACACTGC | 0.0726 |
| ACTACGGA | 0.266 |
| TCTGGTCA | -0.191 |
| AAGTTCCA | -0.0508 |
| ATAGTTTG | -0.153 |
| CAAGGGCC | -0.161 |
| AGCCACGC | -0.132 |
| CAAATGAA | -0.136 |
| TCCCCCCA | -0.196 |
| CCCGCAGA | 0.158 |
| AATCCTAG | -0.0711 |

| Sequence | PBM E-score |
| --- | --- |
| GCCTTGAA | -0.312 |
| ATGCGAGG | -0.224 |
| GCGGTTTA | -0.0154 |
| ATGCGATA | -0.041 |
| AAAACCCC | 0.0806 |
| TCTACACA | -0.0869 |
| CCCGGTCG | 0.267 |
| ATGGCTCC | -0.0525 |
| AAACGTTC | -0.0502 |
| AGCTGAGA | -0.234 |
| AGCTAGAA | -0.209 |
| GGACGACC | -0.0611 |
| CAGCAACG | -0.0727 |
| AAATTGCC | 0.19 |
| TAAAGTTA | -0.0583 |
| GAGGCTCC | 0.00692 |
| CCGCGACC | 0.0824 |
| TACTAGAA | -0.0607 |
| GGTTAGAA | -0.00133 |
| ATCTCGTA | -0.154 |
| GCTAGCTA | -0.0957 |
| CGAGGTGC | 0.299 |
| AACGGAGT | 0.197 |
| ACGTAAGC | -0.163 |
| CGAAATAC | 0.141 |

| Sequence | PBM E-score |
| --- | --- |
| GTTGCGTA | 0.0526 |
| AAGCTATA | -0.164 |
| CAAGGGTC | -0.0149 |
| GGCTCTAA | -0.0213 |
| AGCAAATA | -0.192 |
| CAGCCATG | -0.284 |
| CGTAACGC | 0.0075 |
| CCCGCTTA | 0.0362 |
| GCAGCTCC | 0.0859 |
| AGGTCAAG | -0.101 |
| GGTATGAA | -0.0419 |
| AAGATTGC | 0.0143 |
| CTGCGTGA | -0.179 |
| GGGTTGCA | -0.057 |
| CGGTATTC | 0.213 |
| CCAGATAG | -0.0744 |
| AAAGTTAT | -0.0457 |
| ATGGAGAC | -0.114 |
| ATTATATC | 0.055 |
| CATGCACC | -0.135 |
| CTCGAGTC | -0.0623 |
| GAGCCCAA | -0.16 |
| CCCACCGA | 0.0946 |
| GGCAGATA | 0.234 |
| GCCGTCGC | -0.0773 |

| Sequence | PBM E-score |
| --- | --- |
| CTATCTGA | -0.228 |
| CGATTTCC | 0.255 |
| CAGGTCAC | -0.283 |
| ACGCTTTA | -0.187 |
| TAATCTGA | -0.201 |
| AGTAACTC | -0.0281 |
| GTCCCACA | 0.0892 |
| AACTTGAG | -0.166 |
| ATGTGCTA | 0.0962 |
| CGACCATC | -0.0396 |
| CATCCACA | -0.108 |
| ACGCTAAG | -0.354 |
| GGACAGGA | -0.0503 |
| ATCACGAT | -0.132 |
| GTAGTACA | -0.23 |
| GTGTGAAA | 0.0372 |
| ATCGAAGG | -0.15 |
| CTTTTATC | 0.0869 |
| GAAACTCC | 0.0704 |
| ATTTCGAA | -0.0575 |
| CTTGTCCC | 0.174 |
| GGTGAAAC | 0.108 |
| AGTAAGAC | -0.27 |
| GTACGAGA | -0.0312 |
| TCAGATCA | -0.235 |

| Sequence | PBM E-score |
| --- | --- |
| ACATGACC | -0.0942 |
| GGTTAAGA | -0.0248 |
| ACGCAGAG | -0.234 |
| CAGGCGAC | -0.0912 |
| AATGCTAA | -0.0473 |
| AGCAAAGG | -0.175 |
| GGCGATTA | 0.124 |
| AGTGTGGG | -0.0891 |
| GCTCCTCA | -0.0987 |
| ATAATTTC | 0.092 |
| AGTCAGTA | 0.0306 |
| GTGAGACA | 0.0391 |
| ATCCTATC | -0.0255 |
| GCCAAACC | 0.0652 |
| ATAGGAAA | -0.0283 |
| AGTCCTTC | -0.0651 |
| CCGAAGAA | 0.402 |
| ACGAACCC | 0.123 |
| TATACTCA | -0.174 |
| ACTCAACC | -0.0648 |
| GCCGGCCA | 0.264 |
| ACCCCAAT | -0.207 |
| GAGCTAAC | 0.13 |
| AGTCAGTC | -0.166 |
| AATTCCGG | 0.358 |

| Sequence | PBM E-score |
| --- | --- |
| CCCATCCA | -0.151 |
| CGATGCCG | 0.263 |
| CGAGCGGC | 0.272 |
| CAAAGCAA | -0.0355 |
| AGTGCTAC | -0.233 |
| CAAGCTGC | -0.129 |
| CCAAGGAC | -0.18 |
| CAATAACA | -0.101 |
| AGAATTGC | 0.0152 |
| TGAGCAAA | -0.0867 |
| AGAACGCA | -0.176 |
| TCGATCAA | -0.179 |
| AGTTGACA | -0.174 |
| ACCGCATA | 0.0903 |
| CCGGCGTC | 0.251 |
| CTCGCGTC | -0.0112 |
| CAATATAC | -0.0523 |
| ACACCGAT | 0.00608 |
| ACAGACAC | -0.0573 |
